According to the supplement of paper PMC10126150:
Values marked as one replicate rest on one cluster of the flow cell; about a third of the high ones do not repeat.

Each sequence was assayed on ATP (assay: switch fluorescence ratio, 500 uM ATP over buffer (Cy3 cluster intensity, sum of 5 cycles each) (fold (ratio)); higher = stronger signal-on switching upon ATP binding; sequences stand for … in TCGTCGGCAGCGTCAGATGTGTATAAGAGACAGTTTTTTTTTTTTTTTTTTTTTTTTT…TC). Conditions: aptamer strand: ATP DNA aptamer (quencher-CACCTGGGGGAGTATTGCGGAGGAAGG + anchor), 100 nM annealed; ATP concentration: 500 uM; one replicate.
How it was run: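 For every switch-domain sequence, the fluorescence ratio is the mean of per-cluster values, each being summed target-cycle Cy3 intensity over summed buffer-cycle Cy3 intensity. Clusters outside 100-1000 RFU were excluded. On a modified Illumina MiSeq flow-cell, the Cy3-labelled switching-strand clusters were annealed to 100 nM quencher-labelled ATP aptamer, imaged in selection buffer and then after 15 min with 500 uM ATP at 22 °C. Five such cycles were run, with NaOH stripping and re-annealing between them.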
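Note: ATP exposure 15 min at 22 °C before imaging.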

Row | Sequence | switch fluorescence ratio
1 | CGGGGGAGAT | 0.984
2 | CGGGGGGAG | 0.979
3 | CGGGGGGTAT | 0.993
4 | CGGGGTAAAT | 1.02
5 | CGGGGTGGCG | 2.49
6 | CGGGGTTTAC | 2.16
7 | CGGGTAAGCG | 1.03
8 | CGGGTACTAT | 0.975
9 | CGGGTACTTG | 0.993
10 | CGGGTCACCC | 0.985
11 | CGGGTCTTAC | 1.06
12 | CGGGTGACAG | 0.987
13 | CGGGTGATAG | 0.996
14 | CGGGTGCCCT | 1.01
15 | CGGGTGCCGC | 1.04
16 | CGGGTGTCCA | 0.999
17 | CGGGTTATCA | 0.94
18 | CGGGTTCCGG | 1.05
19 | CGGGTTCTCC | 0.985
20 | CGGTAATCTG | 0.966
21 | CGGTAATTAT | 1
22 | CGGTAGGAGT | 1.02
23 | CGGTAGTATT | 1.02
24 | CGGTATAGGG | 1.02
25 | CGGTATCCGG | 0.995
26 | CGGTATGACC | 1.03

Row | Sequence | switch fluorescence ratio
27 | CGGTATTTA | 0.983
28 | CGGTATTTGT | 0.958
29 | CGGTCAGGC | 0.95
30 | CGGTCAGTGA | 1
31 | CGGTCATAGG | 0.989
32 | CGGTCGGAAA | 1.01
33 | CGGTCTACTT | 1.01
34 | CGGTGAAAGA | 1.04
35 | CGGTGATGGT | 1.06
36 | CGGTGCACGA | 1
37 | CGGTGCATCT | 1.03
38 | CGGTGGCACA | 1.01
39 | CGGTGGGAAC | 1.03
40 | CGGTGGGCGT | 1.02
41 | CGGTGGTTTT | 0.996
42 | CGGTGTAGTA | 1.05
43 | CGGTGTTCTG | 1
44 | CGGTGTTTTT | 1.03
45 | CGGTTATAC | 2.32
46 | CGGTTCAACA | 0.994
47 | CGGTTCACAC | 1
48 | CGGTTCACCG | 0.97
49 | CGGTTCCTAG | 0.969
50 | CGGTTCCTCT | 1
51 | CGGTTCGGTT | 0.998
52 | CGGTTGGAAG | 0.987

Row | Sequence | switch fluorescence ratio
53 | CGGTTGGAGT | 1.03
54 | CGGTTGGTAA | 1.02
55 | CGGTTGTGTC | 0.943
56 | CGGTTTAGCC | 0.994
57 | CGGTTTATTA | 1
58 | CGGTTTGTTC | 1.06
59 | CGTAAATATT | 0.968
60 | CGTAAATCGA | 1
61 | CGTAAATGGA | 0.974
62 | CGTAAGAGAA | 1.02
63 | CGTAATATAG | 1.05
64 | CGTAATCTTC | 1.02
65 | CGTAATTAAA | 1
66 | CGTACCCGTA | 0.999
67 | CGTACGGTTA | 1.07
68 | CGTACTTTTA | 0.979
69 | CGTAGAGTGC | 0.975
70 | CGTAGATTCG | 0.967
71 | CGTAGCTTGG | 1.24
72 | CGTAGTGCGG | 1.05
73 | CGTATATGCG | 1.06
74 | CGTATCAAGT | 1.01
75 | CGTATGTAAG | 0.917
76 | CGTATTATA | 0.952
77 | CGTATTTATG | 1
78 | CGTCAAAAGG | 0.984

Row | Sequence | switch fluorescence ratio
79 | CGTCAACC | 1.1
80 | CGTCAACCTA | 1.06
81 | CGTCAATCTC | 3.43
82 | CGTCAATGAG | 1.04
83 | CGTCAATTA | 1.17
84 | CGTCACTCGC | 1.11
85 | CGTCAGAGGA | 0.998
86 | CGTCAGGCA | 1.03
87 | CGTCAGGGTT | 1
88 | CGTCAGTAGG | 1.07
89 | CGTCAGTTTA | 0.997
90 | CGTCATCATG | 0.982
91 | CGTCATCGG | 1.09
92 | CGTCCAAGCG | 1.07
93 | CGTCCATAGC | 1.47
94 | CGTCGAGATG | 0.998
95 | CGTCGCATTA | 1.67
96 | CGTCGCGAAA | 1.05
97 | CGTCGGTATT | 1.02
98 | CGTCGGTGAC | 1.01
99 | CGTCGGTTAT | 1.02
100 | CGTCGTCCAG | 1.01
101 | CGTCGTCGGC | 1.07
102 | CGTCGTTGAC | 0.998
103 | CGTCTCGGGA | 1.05
104 | CGTCTGGGC | 0.981

Row | Sequence | switch fluorescence ratio
105 | CGTCTGTCCA | 1.01
106 | CGTCTTGCCT | 0.984
107 | CGTGAACGGG | 1.01
108 | CGTGAAGCCT | 1.03
109 | CGTGACCCTA | 1.03
110 | CGTGACGTG | 0.961
111 | CGTGAGAGTA | 1.01
112 | CGTGAGCATC | 1.45
113 | CGTGAGCGCC | 0.961
114 | CGTGAGGATG | 1
115 | CGTGAGTCTG | 1.01
116 | CGTGATCGCC | 0.97
117 | CGTGATGGT | 0.997
118 | CGTGCCGCCG | 0.963
119 | CGTGCCGGCC | 0.972
120 | CGTGCGAAAA | 1.02
121 | CGTGCGCTAA | 2.83
122 | CGTGCTACAT | 1.01
123 | CGTGCTAGTG | 0.968
124 | CGTGCTCTCT | 1.02
125 | CGTGCTTGTC | 0.933
126 | CGTGGAGCCC | 0.95
127 | CGTGGCACTG | 1.01
128 | CGTGGGCCTA | 0.97
129 | CGTGGGGAG | 0.999
130 | CGTGGGGTCG | 0.991

Row | Sequence | switch fluorescence ratio
131 | CGTGGTTGTA | 0.999
132 | CGTGTAAATC | 1.01
133 | CGTGTACGG | 1
134 | CGTGTATAAT | 1.02
135 | CGTGTATCTC | 1.06
136 | CGTGTCCCAC | 1.05
137 | CGTGTCGCGA | 1.02
138 | CGTGTCGGGG | 1.02
139 | CGTGTGGTTA | 1.04
140 | CGTGTTTGT | 0.971
141 | CGTGTTTTAA | 0.925
142 | CGTGTTTTGG | 0.947
143 | CGTTACATAG | 1.03
144 | CGTTACCCAC | 1.51
145 | CGTTACTGGG | 0.993
146 | CGTTAGGGC | 1.01
147 | CGTTAGGTGG | 0.967
148 | CGTTAGTGCT | 0.962
149 | CGTTAGTTCG | 1.01
150 | CGTTATGTAG | 1.03
151 | CGTTATGTT | 1
152 | CGTTCAACCG | 1.01
153 | CGTTCAGGGT | 0.993
154 | CGTTCCGACA | 1.38
155 | CGTTCCTCTC | 1.57
156 | CGTTCGGACG | 1.02

Row | Sequence | switch fluorescence ratio
157 | CGTTCGTTAG | 1.02
158 | CGTTCGTTTT | 1.23
159 | CGTTCTCAGA | 0.979
160 | CGTTCTCGTG | 1.03
161 | CGTTGATCTA | 1.01
162 | CGTTGCTGCG | 0.926
163 | CGTTGGTTGC | 1.05
164 | CGTTGGTTTC | 0.966
165 | CGTTGTGCCT | 1.03
166 | CGTTGTTTAC | 1.07
167 | CGTTTACTGG | 0.978
168 | CGTTTAGCCC | 0.976
169 | CGTTTCAAG | 1.02
170 | CGTTTCGTCC | 1.01
171 | CGTTTGCTCA | 1.03
172 | CGTTTGGTAC | 1.09
173 | CGTTTTCAAA | 0.989
174 | CGTTTTGGAC | 1
175 | CGTTTTGGTA | 0.999
176 | CTAAAAGGG | 1.01
177 | CTAAACGCCG | 0.936
178 | CTAAACGGGT | 0.986
179 | CTAAAGAAGT | 0.989
180 | CTAAAGCTGA | 1.11
181 | CTAAATACAG | 1.04
182 | CTAACCCCAC | 1.22

Row | Sequence | switch fluorescence ratio
183 | CTAACGTCGA | 1.09
184 | CTAACTCTAA | 0.993
185 | CTAATATATG | 0.966
186 | CTAATCTGGG | 0.981
187 | CTAATGACAT | 0.996
188 | CTAATGGCGC | 1.03
189 | CTAATGGGGG | 0.962
190 | CTAATGGTT | 0.964
191 | CTAATTCGTT | 1
192 | CTAATTGGGA | 0.978
193 | CTACAACTAG | 1.02
194 | CTACAAGTAG | 1.03
195 | CTACACGGCA | 1.07
196 | CTACATATGG | 1.02
197 | CTACCACCTA | 1.19
198 | CTACCCAGAA | 1.01
199 | CTACCGGCTT | 1.07
200 | CTACCTAGCC | 1.23
201 | CTACCTTTTA | 1.02
